In US9670250B2, “Alpha-helical peptidomimetic inhibitors and methods using same” (The Trustees of the University of Pennsylvania, priority 2012, dated 2017):
For some of these results: At least one peptide structure holds a part that was inferred or is arguable (an end, a ring closure or a residue). At least one structure is not confirmed: it was looked up by name or label, or the drawing left a doubt. One block for each molecule: values may come before it. Starred links: 1 amine or outer side, 2 acyl side, 3 side chain; linkers in the order of their positions; H or OH if unused. Positions of bridges follow the written chain, without caps; N, C: chain ends. Residues, ends and D or L forms follow the SMILES beside them. mXylylene = c1cc(C[*:1])cc(C[*:2])c1

How the values were obtained:
Assay type in all cases: biochemical
Cathepsin L = Cathepsin L (Homo sapiens, UniProt P07711); experiment: in vitro fluorescence-based protease inhibition assay, cathepsin L
Source text: (§1) Thus, the present invention includes a series of potent and highly specific α-helical inhibitors for papain family cysteine proteases. […] These short α-helical peptidomimetic inhibitors are modeled after the natural pro-domain sequence but contain a cysteine substitution at specific residues in i,i+4 positions, as shown in FIG. 2B. These cysteine residues are used for stabilization of the helix utilizing an appropriate linker (Muppidi, et al., 2011, Chem Commun (Camb) 47:9396-9398). After synthesis, each inhibitor was tested against its respective protease using an in vitro fluorescence-based assay. For each enzyme, at least one inhibitor was identified that is relatively potent and highly specific for its individual protease. These inhibitors can be modified or otherwise optimized to attain higher potency and selectivity through identification of key interactions between the inhibitor and the active site amino acid residues. Such optimization involves visual examination of the protease crystal structure, and substitution with either non-natural or natural amino acids to exploit possible crucial non-covalent protein ligand interactions, such as hydrogen bond, electrostatic, hydrophobic, and Van der Waals interactions.

Calpain (Calpain-1) = biological target: T1, Calpain (Calpain-1) (Homo sapiens, UniProt P07384); experiment: in vitro fluorescence-based protease inhibition assay, calpain
T1 sequence (P07384 1-714): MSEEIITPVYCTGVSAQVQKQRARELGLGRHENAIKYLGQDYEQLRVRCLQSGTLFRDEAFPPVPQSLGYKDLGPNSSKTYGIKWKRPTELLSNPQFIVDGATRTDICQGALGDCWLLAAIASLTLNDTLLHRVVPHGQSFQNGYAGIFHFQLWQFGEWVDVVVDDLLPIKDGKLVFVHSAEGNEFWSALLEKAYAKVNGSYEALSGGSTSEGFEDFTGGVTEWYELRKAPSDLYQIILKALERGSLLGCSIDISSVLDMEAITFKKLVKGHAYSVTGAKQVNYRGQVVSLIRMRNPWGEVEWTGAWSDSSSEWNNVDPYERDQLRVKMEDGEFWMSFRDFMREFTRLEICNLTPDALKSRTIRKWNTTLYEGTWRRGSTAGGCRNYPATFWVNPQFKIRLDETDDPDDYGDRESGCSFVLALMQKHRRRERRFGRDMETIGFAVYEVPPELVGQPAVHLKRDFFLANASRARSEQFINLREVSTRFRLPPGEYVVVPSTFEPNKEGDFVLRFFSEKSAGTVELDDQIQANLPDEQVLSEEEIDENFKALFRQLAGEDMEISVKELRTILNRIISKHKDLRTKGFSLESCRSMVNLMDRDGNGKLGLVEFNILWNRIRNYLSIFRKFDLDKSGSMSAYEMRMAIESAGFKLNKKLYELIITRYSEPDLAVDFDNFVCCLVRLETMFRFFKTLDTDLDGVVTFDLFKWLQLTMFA
T1 sequence (P04632 1-268 partner): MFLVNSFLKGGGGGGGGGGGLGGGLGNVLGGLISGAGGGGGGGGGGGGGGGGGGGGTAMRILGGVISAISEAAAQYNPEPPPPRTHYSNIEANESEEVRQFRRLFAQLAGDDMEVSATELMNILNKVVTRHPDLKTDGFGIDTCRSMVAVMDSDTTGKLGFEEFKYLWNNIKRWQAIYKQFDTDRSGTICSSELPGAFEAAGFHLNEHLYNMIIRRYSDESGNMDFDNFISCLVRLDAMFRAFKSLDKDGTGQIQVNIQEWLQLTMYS
Source text: as §1

Cathepsin K = biological target: T2, Cathepsin K (Homo sapiens, UniProt P43235); experiment: in vitro fluorescence-based protease inhibition assay, cathepsin K
T2 sequence (P43235 115-329): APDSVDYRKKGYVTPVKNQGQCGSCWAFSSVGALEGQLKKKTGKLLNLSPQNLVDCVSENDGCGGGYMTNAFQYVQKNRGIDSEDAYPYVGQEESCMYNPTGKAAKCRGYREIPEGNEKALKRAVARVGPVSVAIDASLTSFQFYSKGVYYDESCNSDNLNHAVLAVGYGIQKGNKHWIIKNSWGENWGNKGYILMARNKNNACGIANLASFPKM
Source text: as §1

Cathepsin S = Cathepsin S (Homo sapiens, UniProt P25774); experiment: in vitro fluorescence-based protease inhibition assay, cathepsin S
Source text: as §1

[1] = Table 1, cathepsin L inhibitors
[2] = Table 2, cathepsin S inhibitors
[3] = Table 3, cathepsin K inhibitors

Sequence of Cathepsin L (P07711 114-333, species assumed): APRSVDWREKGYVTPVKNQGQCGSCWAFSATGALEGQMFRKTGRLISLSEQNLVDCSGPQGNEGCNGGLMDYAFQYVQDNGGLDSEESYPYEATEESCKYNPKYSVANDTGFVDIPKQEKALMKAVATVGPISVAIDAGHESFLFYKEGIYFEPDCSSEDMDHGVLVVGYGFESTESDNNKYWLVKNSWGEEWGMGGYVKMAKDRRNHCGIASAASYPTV
Sequence of Cathepsin S (P25774 115-331, species assumed): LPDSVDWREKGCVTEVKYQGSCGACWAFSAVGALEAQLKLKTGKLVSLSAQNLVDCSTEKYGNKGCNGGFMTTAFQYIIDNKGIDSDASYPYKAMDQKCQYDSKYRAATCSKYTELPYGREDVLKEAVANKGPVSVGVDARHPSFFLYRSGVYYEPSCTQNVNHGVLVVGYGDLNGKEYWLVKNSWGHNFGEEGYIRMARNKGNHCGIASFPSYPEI

Structure (SMILES): CSCC[C@H](NC(=O)[C@@H](NC(=O)[C@H](CCC(N)=O)NC(=O)[C@H](CCCNC(=N)N)NC(=O)[C@H](Cc1ccccc1)NC(=O)[C@H](CCC(=O)O)NC(=O)[C@H](CCC(=O)O)NC(=O)[C@@H](N)CO)C(C)C)C(=O)N[C@@H](CC(N)=O)C(=O)NCC(=O)N[C@@H](Cc1ccccc1)C(=O)O [compound 1] (H-SEEFRQVMNGF-OH)
- Ki (Cathepsin L; [1]): > 100 µM

Structure (SMILES): CSCC[C@H](NC(=O)[C@@H](NC(=O)[C@@H]1CSCc2cccc(c2)CSC[C@H](NC(=O)[C@@H](N)CO)C(=O)N[C@@H](CCC(=O)O)C(=O)N[C@@H](Cc2ccccc2)C(=O)N[C@@H](CCCNC(=N)N)C(=O)N1)C(C)C)C(=O)N[C@@H](CC(N)=O)C(=O)NCC(=O)N[C@@H](Cc1ccccc1)C(=O)O [compound 3] (H-SCEFRCVMNGF-OH; linker 2-6 via mXylylene; N-terminus and C-terminus assumed)
- Ki (Calpain (Calpain-1); [1]): > 100 µM
- Ki (Cathepsin K; [1]): > 100 µM
- Ki (Cathepsin S; [1]): > 100 µM

Structure (SMILES): CSCC[C@H](NC(=O)[C@H](CC(C)C)NC(=O)[C@H](CO)NC(=O)[C@@H]1CSCc2cccc(c2)CSC[C@H](NC(=O)[C@@H](N)[C@@H](C)O)C(=O)N[C@@H](CCC(=O)O)C(=O)N[C@@H](CCC(=O)O)C(=O)N[C@@H](C(C)C)C(=O)N1)C(=O)N[C@@H](CO)C(=O)N[C@@H](CO)C(=O)O [compound 15] (H-TCEEVCSLMSS-OH; linker 2-6 via mXylylene)
- Ki (Cathepsin S; [2]): > 100 µM

Structure (SMILES): CSCC[C@@H]1NC(=O)[C@H](Cc2ccccc2)NC(=O)[C@H](CO)NC(=O)[C@@H](NC(=O)[C@@H](NC(=O)[C@H](CCC(=O)O)NC(=O)[C@H](CCC(=O)O)NC(=O)[C@H](CO)NC(=O)[C@@H](N)[C@@H](C)O)C(C)C)CSCc2cccc(c2)CSC[C@@H](C(=O)N[C@@H](CO)C(=O)O)NC1=O [compound 22] (H-TSEEVCSFMCS-OH; linker 6-10 via mXylylene)
- Ki (Cathepsin S; [2]): > 100 µM

Structure (SMILES): CC(C)[C@@H]1NC(=O)[C@H](CO)NC(=O)[C@H](CCC(=O)O)NC(=O)[C@@H](NC(=O)[C@@H](N)CO)CSCc2cccc(c2)CSC[C@@H](C(=O)N[C@@H](CCCCN)C(=O)N2CCC[C@H]2C(=O)N[C@@H](Cc2c[nH]c3ccccc23)C(=O)NCC(=O)N2CCC[C@H]2C(=O)O)NC1=O [compound 50] (H-SCESVCKPWGP-OH; linker 2-6 via mXylylene)
- Ki (Calpain (Calpain-1); [3]): > 100 µM
- Ki (Cathepsin L; [3]): > 100 µM
- Ki (Cathepsin S; [3]): > 100 µM

Structure (SMILES): CC[C@H](C)[C@H](N)C(=O)N1CCC[C@H]1C(=O)N1CCC[C@H]1C(=O)N[C@@H](C)C(=O)N[C@@H](Cc1ccc(O)cc1)C(=O)N[C@H]1CSCc2cccc(c2)CSC[C@@H](C(=O)O)NC(=O)[C@H](CC(C)C)NC(=O)[C@H](CC(C)C)NC(=O)[C@H](CCC(=O)O)NC1=O [compound 78] (H-IPPAYCELLC-OH; linker 6-10 via mXylylene; N-terminus and C-terminus assumed)
- Ki (Calpain (Calpain-1); Table 4, calpain inhibitors): 17.7 ± 5.6 µM
- Ki (Cathepsin K; Table 4, calpain inhibitors): > 100 µM

The remaining lines, values ahead:

- Ki (Calpain (Calpain-1); [2]): > 100 µM
- Ki (Cathepsin K; [2]): > 100 µM
- Ki (Cathepsin L; [2]): 16.7 ± 2.6 µM
Structure (SMILES): CSCC[C@@H]1NC(=O)[C@H](CC(C)C)NC(=O)[C@H](CO)NC(=O)[C@@H](NC(=O)[C@@H](NC(=O)[C@H](CCC(=O)O)NC(=O)[C@H](CCC(=O)O)NC(=O)[C@H](CO)NC(=O)[C@@H](N)[C@@H](C)O)C(C)C)CSCc2cccc(c2)CSC[C@@H](C(=O)N[C@@H](CO)C(=O)O)NC1=O [compound 16] (H-TSEEVCSLMCS-OH; linker 6-10 via mXylylene; N-terminus and C-terminus assumed)

- Ki (Calpain (Calpain-1); [2]): > 100 µM
- Ki (Cathepsin L; [2]): 93.9 ± 1.33 µM
Structure (SMILES): CSCC[C@@H]1NC(=O)[C@H](CC(C)C)NC(=O)[C@H](CO)NC(=O)[C@@H](NC(=O)[C@@H](NC(=O)[C@H](CCC(=O)O)NC(=O)[C@H](CCC(=O)O)NC(=O)[C@H](Cc2c[nH]c3ccccc23)NC(=O)[C@@H](N)[C@@H](C)O)C(C)C)CSCc2cccc(c2)CSC[C@@H](C(=O)N[C@@H](CO)C(=O)O)NC1=O [compound 18] (H-TWEEVCSLMCS-OH; linker 6-10 via mXylylene; N-terminus and C-terminus assumed)

- Ki (Calpain (Calpain-1); [3]): > 100 µM
- Ki (Cathepsin L; [3]): > 100 µM
- Ki (Cathepsin S; [3]): > 100 µM
Structure (SMILES): CSCC[C@H](NC(=O)[C@H](CCCCN)NC(=O)[C@@H]1CSCc2cccc(c2)CSC[C@H](NC(=O)[C@@H](N)CO)C(=O)N[C@@H](CCC(=O)O)C(=O)N[C@@H](C(C)C)C(=O)N[C@@H](C(C)C)C(=O)N1)C(=O)N[C@H](C(=O)NCC(=O)N[C@@H](CC(C)C)C(=O)O)[C@@H](C)O [compound 33] (H-SCEVVCKMTGL-OH; linker 2-6 via mXylylene)
